# Source: the supplement of paper PMC10037445
# Several values for one entry are separate records, joined by “and”; a condition that tells them apart may be missing. Equal values may be shown once. Whole data set: some 2,900 compounds, median “IRF Lucia reporter activity, fold change vs agonist alone” near 0.9, cut for the highest 2% near 2.8. This is one part of the list.
# Columns and labels:
# [1] = system: RAW-Dual; assay: IRF Lucia reporter activity, fold change vs agonist alone; higher = enhanced IRF activity; details: agonist: MPLA (TLR4) […]
# Procedure, shortened: (§1)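 RAW-Dual macrophages were seeded in DMEM at 50,000 cells/well in 384-well plates, given 50 nL of library stock by pin tool, and given a PRR agonist 1 h later. Plates were held at 37 °C, 5% CO2 for 20 hours, after which supernatant was read for IRF by QuantiLuc luminescence and for NF-κB by QuantiBlue absorbance at 620 nm. Reporter activity is expressed as fold change over wells that received agonist alone. A well was called cytotoxic when IncuCyte confluency fell below 70% of agonist controls in both mask sets.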
# [2] = system: RAW-Dual; assay: IRF Lucia reporter activity, fold change vs agonist alone; cytotoxicity flag (confluency mask): not cytotoxic; higher = enhanced IRF activity
# Procedure, shortened: as §1
# [3] = system: RAW-Dual; assay: IRF Lucia reporter activity, fold change vs agonist alone; cytotoxicity flag (confluency mask): cytotoxic (confluency <70% of control); higher = enhanced IRF activity
# Procedure, shortened: as §1
# [4] = library stock concentration (final ~1000-fold dilution): 10 mM, cytotoxicity flag (confluency mask): not cytotoxic
# [5] = agonist: 3'3'-cGAMP (STING) 10 ug/mL
# [6] = library stock concentration (final ~1000-fold dilution): 10 mM, cytotoxicity flag (confluency mask): cytotoxic (confluency <70% of control)
smiles,measurement,setting,value
CC(=O)C1CCC2C3CC=C4CC(O)CCC4(C)C3CCC12C (stereo not given),IRF Lucia reporter activity,[1]; [4],1.29
O=c1cc(-c2ccc(O)cc2)oc2cc(O)cc(O)c12 (library stock concentration (final ~1000-fold dilution): 10 mM),IRF Lucia reporter activity,[2]; [5],0.322
same,IRF Lucia reporter activity,[2]; agonist: LPS (TLR4) 0.1 ug/mL,0.154
O=c1cc(-c2ccc(O)cc2)oc2cc(O)cc(O)c12,IRF Lucia reporter activity,[1]; [4],0.323
O=C(O)C1=C/C(=N\Nc2ccc(S(=O)(=O)Nc3ccccn3)cc2)C=CC1=O (library stock concentration (final ~1000-fold dilution): 10 mM),IRF Lucia reporter activity,[2]; [5],0.605
same,IRF Lucia reporter activity,[2]; agonist: LPS (TLR4) 0.1 ug/mL,0.717
COC(=O)CC1CC(c2ccc(O)cc2)=NO1 (stereo not given) (library stock concentration (final ~1000-fold dilution): 10 mM),IRF Lucia reporter activity,[2]; [5],1.02
same,IRF Lucia reporter activity,[2]; agonist: LPS (TLR4) 0.1 ug/mL,0.978
COc1ccc(S(=O)(=O)N(CCO)c2ccccc2CN(C)CC=Cc2ccc(Cl)cc2)cc1,IRF Lucia reporter activity,[1]; [4],1.27
COc1ccc(S(=O)(=O)N(CCO)c2ccccc2CN(C)CC=Cc2ccc(Cl)cc2)cc1 (library stock concentration (final ~1000-fold dilution): 10 mM),IRF Lucia reporter activity,[2]; [5],0.178
same,IRF Lucia reporter activity,[2]; agonist: LPS (TLR4) 0.1 ug/mL,0.924
CC(C)CNc1ccnc(NCc2csc(-c3ccccc3)n2)n1.Cl,IRF Lucia reporter activity,[1]; [6],2.05
CC(C)CNc1ccnc(NCc2csc(-c3ccccc3)n2)n1.Cl (library stock concentration (final ~1000-fold dilution): 10 mM),IRF Lucia reporter activity,[3]; [5],0.669
same,IRF Lucia reporter activity,[3]; agonist: LPS (TLR4) 0.1 ug/mL,1.38
Cl.Clc1ccc(CCCOCCCN2CCCCC2)cc1 (library stock concentration (final ~1000-fold dilution): 10 mM),IRF Lucia reporter activity,[2]; [5],0.779
same,IRF Lucia reporter activity,[2]; agonist: LPS (TLR4) 0.1 ug/mL,1.2
Cl.Clc1ccc(CCCOCCCN2CCCCC2)cc1,IRF Lucia reporter activity,[1]; [4],1.29
COc1ccc(-c2cc(=O)c3c(O)cc(O)cc3o2)cc1O (library stock concentration (final ~1000-fold dilution): 10 mM),IRF Lucia reporter activity,[2]; [5],0.374
same,IRF Lucia reporter activity,[2]; agonist: LPS (TLR4) 0.1 ug/mL,0.116
COc1ccc(-c2cc(=O)c3c(O)cc(O)cc3o2)cc1O,IRF Lucia reporter activity,[1]; [4],0.235
Cc1cc2c(F)c(Oc3ncnn4cc(OCC(C)O)c(C)c34)ccc2[nH]1 (stereo not given) (library stock concentration (final ~1000-fold dilution): 10 mM),IRF Lucia reporter activity,[2]; [5],1.01
same,IRF Lucia reporter activity,[2]; agonist: LPS (TLR4) 0.1 ug/mL,1.75
Cc1cc2c(F)c(Oc3ncnn4cc(OCC(C)O)c(C)c34)ccc2[nH]1 (stereo not given),IRF Lucia reporter activity,[1]; [4],1.93
CC1(C)CC(=O)c2c(C(F)(F)F)nn(-c3ccc(C(N)=O)c(NC4CCC(OC(=O)CN)CC4)c3)c2C1 (stereo not given) (library stock concentration (final ~1000-fold dilution): 10 mM),IRF Lucia reporter activity,[2]; [5],0.971
same,IRF Lucia reporter activity,[2]; agonist: LPS (TLR4) 0.1 ug/mL,0.739
CC1(C)CC(=O)c2c(C(F)(F)F)nn(-c3ccc(C(N)=O)c(NC4CCC(OC(=O)CN)CC4)c3)c2C1 (stereo not given),IRF Lucia reporter activity,[1]; [4],1.06
CC(NC(=O)/C(C#N)=C/c1cccc(Br)n1)c1ccccc1 (stereo not given),IRF Lucia reporter activity,[1]; [6],0.0244
CC(NC(=O)/C(C#N)=C/c1cccc(Br)n1)c1ccccc1 (stereo not given) (library stock concentration (final ~1000-fold dilution): 10 mM),IRF Lucia reporter activity,[3]; [5],0.0208
same,IRF Lucia reporter activity,[3]; agonist: LPS (TLR4) 0.1 ug/mL,0.0182
CCN(CC)CCNC(=O)c1cc(S(C)(=O)=O)ccc1OC.Cl (library stock concentration (final ~1000-fold dilution): 10 mM),IRF Lucia reporter activity,[2]; [5],1.03
same,IRF Lucia reporter activity,[2]; agonist: LPS (TLR4) 0.1 ug/mL,0.987
Cc1c(OCC(F)(F)F)ccnc1CS(=O)c1nc2ccccc2[nH]1 (stereo not given),IRF Lucia reporter activity,[1]; [4],0.994
Cc1c(OCC(F)(F)F)ccnc1CS(=O)c1nc2ccccc2[nH]1 (stereo not given) (library stock concentration (final ~1000-fold dilution): 10 mM),IRF Lucia reporter activity,[2]; [5],0.715
same,IRF Lucia reporter activity,[2]; agonist: LPS (TLR4) 0.1 ug/mL,0.834
CC(C)(C)N.CCCC(NC(C)C(=O)N1C(C(=O)O)CC2CCCCC21)C(=O)OCC (stereo not given) (library stock concentration (final ~1000-fold dilution): 10 mM water),IRF Lucia reporter activity,[2]; [5],1.03
same,IRF Lucia reporter activity,[2]; agonist: LPS (TLR4) 0.1 ug/mL,0.833
CC(C)(C)N.CCCC(NC(C)C(=O)N1C(C(=O)O)CC2CCCCC21)C(=O)OCC (stereo not given),IRF Lucia reporter activity,"[1]; library stock concentration (final ~1000-fold dilution): 10 mM water, cytotoxicity flag (confluency mask): not cytotoxic",1.32
CN1CCc2cc3c(cc2C(=O)Cc2ccc4c(c2C1)OCO4)OCO3,IRF Lucia reporter activity,[1]; [4],1.11
CN1CCc2cc3c(cc2C(=O)Cc2ccc4c(c2C1)OCO4)OCO3 (library stock concentration (final ~1000-fold dilution): 10 mM),IRF Lucia reporter activity,[2]; [5],1.04 and 0.775
same,IRF Lucia reporter activity,[2]; agonist: LPS (TLR4) 0.1 ug/mL,1.2 and 1.22
C=CC(=O)Nc1cc(C)ccc1Nc1nc(Nc2cc(OC)ncc2C)ncc1C(F)(F)F (library stock concentration (final ~1000-fold dilution): 10 mM),IRF Lucia reporter activity,[3]; [5],0.056
same,IRF Lucia reporter activity,[3]; agonist: LPS (TLR4) 0.1 ug/mL,0.0167
Cl.N=C(N)NC(=O)c1nc(Cl)c(N)nc1N,IRF Lucia reporter activity,[1]; [4],0.879
Cl.N=C(N)NC(=O)c1nc(Cl)c(N)nc1N (library stock concentration (final ~1000-fold dilution): 10 mM),IRF Lucia reporter activity,[2]; [5],1.17
same,IRF Lucia reporter activity,[2]; agonist: LPS (TLR4) 0.1 ug/mL,0.9
